Laboratory results reported in PubChem BioAssay AID1745853 (National Center for Advancing Translational Sciences (NCATS), 2022).
Where “and” joins values, the source holds several entries; their conditions need not be identical. Equal values may be shown once. Some of the results follow. These are further read-outs of the screen, such as a control signal, another cell line or another target. No call is given for them.

Assays:
Experiment in all cases: Primary Screen for Target Class Profiling of Small Molecule Inhibitors of Methyltransferases
[1] = target: Glycine N-methyltransferase (Homo sapiens) (UniProt Q14749); details: purified enzyme, MTase-Glo SAH luminescence; measured here: GNMT inhibition; at 40 µM; stronger effect = lower value
Outline: (§1)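 Each enzyme was reacted with SAM and its substrate, with compounds tested once at 40 uM; SAH formed was read by MTase-Glo luminescence.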

[2] = target: Guanidinoacetate N-methyltransferase (Homo sapiens) (UniProt Q14353); details: purified enzyme, MTase-Glo SAH luminescence; measured here: GAMT inhibition; at 40 µM; stronger effect = lower value
Outline: as §1

[3] = target: Histamine N-methyltransferase (Homo sapiens) (UniProt P50135); details: purified enzyme, MTase-Glo SAH luminescence; measured here: HNMT inhibition; at 40 µM; stronger effect = lower value
Outline: as §1

[4] = target: Nicotinamide N-methyltransferase (Homo sapiens) (UniProt P40261); details: purified enzyme, MTase-Glo SAH luminescence; measured here: NNMT inhibition; at 40 µM; stronger effect = lower value
Outline: as §1

[5] = target: Phenylethanolamine N-methyltransferase (Homo sapiens) (UniProt P11086); details: purified enzyme, MTase-Glo SAH luminescence; measured here: PNMT inhibition; at 40 µM; stronger effect = lower value
Outline: as §1
On the % scale 0 is the no-effect control and ±100 the full control effect.

Structure (SMILES) | activity change, negative = inhibition [1] | activity change, negative = inhibition [2] | activity change, negative = inhibition [3] | activity change, negative = inhibition [4] | activity change, negative = inhibition [5]
CCOCCCNC(=O)C1c2c(n(C)c3ccccc23)SCC(=O)N1c1cccc(Cl)c1C (stereo not given) | 11.3% | 1.3% | 8.39% | 7.87% | 11.7%
CC(C)Cn1c(=O)c2ccc(C(=O)NC(C)C)cc2n2c(=O)n(Cc3cccc(F)c3)nc12 | 1.81% | 0% | 1.32% | -0.33% | 4.85%
C[N+]1(C)C2CC(OC(=O)[C@H](CO)c3ccccc3)CC1C1OC12 (stereo not given in full) | -8.17% and -0.483% | 0.089% and 5.98% | -0.516% and 3.27% | -6.06% and -2.76% | 5.58% and 10.7%
O=C(CCc1nnc2n(Cc3ccc(F)cc3)c(=O)c3ccccc3n12)N1CCN(c2ncccn2)CC1 | -13.4% | 0% | 10.7% | -26.8% | 1.16%
N#Cc1cccc(-c2nc(-c3cccnc3)no2)c1 | -8.64% | -6.44% | 4.59% | -22.4% | -1.39%
Cc1ccc(CN2C(=O)c3cc(-c4cccs4)nn3CC2(C)C(=O)NC2CCCCC2)cc1 (stereo not given) | 2.5% | 0.259% | 8.91% | 12.4% | 6.66%
COc1cccc(C(=O)Cn2nc3n(C(C)C)c(=O)c4ccc(C(=O)NC5CCCC5)cc4n3c2=O)c1 | 0.667% | -0.587% | 7.8% | -1.53% | 1.17%
CCOc1ccccc1CN1C(=O)c2cc3sccc3n2CC1(C)C(=O)NC1CCCCCC1 (stereo not given) | 2.2% | 4.11% | 10.1% | 1.76% | 0.27%
O=C(NCc1cccc(C(F)(F)F)c1)c1ccc2nnc(-c3cc[nH]c3)n2c1 | -44.3% | -7.31% | -8.08% | -18.9% | -11.9%
COc1cc(C(=O)OC[C@H]2O[C@@H](Oc3ccccc3/C=C/C(=O)O)[C@H](O)[C@@H](O)[C@@H]2O)cc(OC)c1OC | -1.61% | 0.89% | 9.28% | -13.8% | -5%
CN1C(=O)c2cc(C(=O)NCc3cccs3)nn2CC1(C)C(=O)NC1CCCCCC1 (stereo not given) | 1.78% | 4.82% | -3.76% | 4.03% | 1.48%
CCCN1C(=O)c2c(C(=O)NCCc3ccccc3OC)ncn2CC1(C)C(=O)NC1CCCC1 (stereo not given) | 1.39% | 0.522% | 5.55% | 3.87% | 8.94%
CCOC(=O)c1cc2n(n1)CC(C)(C(=O)NC1CCCCC1)N(c1cccc(Cl)c1)C2=O (stereo not given) | -3.12% | 4.61% | -4.98% | 3.3% | -0.904%
CCCn1c(=O)c2ccc(C(=O)NCC(C)C)cc2n2c(SCC(=O)Nc3ccccc3C)nnc12 | 1.25% | 0% | 0.498% | -3.83% | 3.29%
Cc1ccc(-c2ccccc2CN2CCN(C(=O)Nc3ccccc3)CC2)cc1Cl | -6.06% | -10.1% | -4.51% | -13.5% | -10.9%
O=C(NC1CCCC1)c1ccc(OC2CCN(CCCC(F)(F)F)CC2)c(Cl)c1 | -3.02% | -6.13% | -2.02% | -5.56% | -4.04%
O=C(NCCc1ccccc1)c1ccc2c(=O)nc3c(-c4cccc(C(F)(F)F)c4)n[nH]n3c2c1 | -6.84% | 2.1% | 1.74% | -6.06% | -6.41%
C/C=C(\C)C(=O)O[C@@H](C)[C@H]1CC[C@]2(O)C3CCC4C[C@@H](OC5CC(OC)C(OC6CC(OC)C(OC7CC(OC)C(OC8OC(C)C(OC9OC(CO)C(O)C(O)C9O)C(OC)C8O)C(C)O7)C(C)O6)C(C)O5)CC[C@]4(C)C3[C@H](O)[C@@H](O)[C@]12C (stereo not given in full) | 4.12% | 0.894% | 10.1% | -10.8% | 6.9%
COC(=O)c1ncn2c1C(=O)N(Cc1ccc(OC)cc1)C(C)(C(=O)NCCCOC(C)C)C2 (stereo not given) | 3.55% | 3.68% | 10.6% | 9.32% | 9.75%
C=C1C2=CC(O)C(C)C1(C)CC/C(C)=C/CCC1(C)OC1C2=O (stereo not given) | 0% | 7.66% | 8.64% | -5.7% | 2.76%

Structure (SMILES) | activity change, negative = inhibition [1] | activity change, negative = inhibition [2] | activity change, negative = inhibition [3] | activity change, negative = inhibition [4] | activity change, negative = inhibition [5]
CC(C)[C@H](O)C(=O)N[C@@H](C)C(=O)N[C@@H]1C(=O)N(C)CCc2ccccc21 |  | -13.6% |  | -27.5% | -4.87%
CCCC/C=C\CCCCCc1cc(=O)c2ccccc2n1C | -1.12% | -2.56% | 3.65% | -18.9% | -0.002%
CC(C)(C)c1nn2c(SCC(=O)Nc3ccccc3Cl)nnc2[nH]c1=O | -2.96% | 4.1% | -7.39% | -12.6% | -11.9%
Cc1cn(-c2cc(NC(=O)c3ccc(C)c(Nc4nccc(-c5cnccn5)n4)c3)cc(C(F)(F)F)c2)cn1 | 4.05% | 16.6% | 5.25% | -5.04% | 4.02%
CCCc1nc2c3ccccc3n(CC(=O)N3CCN(c4ccccc4OC)CC3)c(=O)n2n1 | -5.86% | -2.32% | -4.84% | -6.59% | -9.41%
Cc1nn2c(c1-c1ccccc1C(C)C)N(C(=O)c1cnccn1)CCC2 | -2.88% | -1.92% | -0.397% | 1.76% | -2.01%
C=CCN1CCc2cc(O)c(O)cc2C(c2ccccc2)C1 (stereo not given) | -45.7% | 11.4% | -19.4% | -6.71% | 3.69%
CC(C)NC(=O)c1ccc2c(=O)n(C(C)C)c3nn(Cc4ccc(F)cc4Cl)c(=O)n3c2c1 | 3.68% | 0.195% | 11.7% | -4.08% | 5.55%
CC(CN1C(=O)c2ccc(-c3ccco3)n2CC1(C)C(=O)NC1CCCCCC1)c1ccccc1 (stereo not given) | 1.73% | 0% | 7.94% | 0.694% | 1.43%
Cc1ccc(CSc2nnc3n(CCCOC(C)C)c(=O)c4cc(Cl)ccc4n23)cc1 | -5.1% | 4.53% | 2.98% | -13.3% | 0.955%
CC1CN(c2ccccc2C#N)C(=O)CN1C(=O)c1ccc2c(c1)OCCO2 (stereo not given) | -3.48% | -6.33% | 0.178% | -8.29% | -2.21%
CN1c2ccccc2C(=O)N2CCc3c([nH]c4ccccc34)C21 (stereo not given) | -11.2% | 1.38% | -5.22% | -19.6% | -8.99%
Cc1ccccc1Cn1nc2n(CC(C)C)c(=O)c3ccccc3n2c1=O | 9.9% | 2.59% | 12.7% | 8.88% | 10.6%
COc1ccc(N2CCN(S(=O)(=O)c3cc4c(cc3Cl)n(C)c(=O)n4C)CC2)cc1 | 8.49% | 0% | 11.6% | -0.114% | -0.009%
Cc1ccc2n1CCN(C(=O)Nc1ccc(F)cc1)C2C(C)C (stereo not given) | 13.4% | 0.407% | 6.71% | 0.438% | 6.84%
Cc1[nH]nc2ccc(-c3cncc(OC[C@@H](N)Cc4ccccc4)c3)cc12 | -38% | -23.9% | -74.9% | -57.6% | -33.9%
COC1CCCOC12CCN(C(=O)CCn1c(C)nc3ccccc31)CC2 (stereo not given) | -2.18% | -2.95% | -1.82% | -3.22% | -23.9%
CC1CCCCC1NC(=O)CCn1ccc2cc(S(=O)(=O)N3CCCC3)ccc21 (stereo not given) | 7.46% | 0.922% | 7.35% | 13.1% | 7.02%
COc1ncc(-c2ccc3c(Nc4cc(Oc5cc(F)cc(F)c5)cc(C(=O)O)c4)c(S(=O)(=O)NC4CC4)cnc3c2)c(OC)n1 | -24.1% | -1.21% | -19.1% | -50% | -13.3%
Cc1nc2ccccc2n1CCNS(=O)(=O)c1ccc(F)cc1 | -1.32% | 0% | 2.07% | 1.88% | 4.39%

Structure (SMILES) | activity change, negative = inhibition [1] | activity change, negative = inhibition [2] | activity change, negative = inhibition [3] | activity change, negative = inhibition [4] | activity change, negative = inhibition [5]
CCNC(=O)c1ccc2c(c1)OCCN(c1cccc(OC(F)(F)F)c1)C2 | -6.89% | -5.1% | -0.926% | -18.6% | -9.21%
CSc1ccc(CNC(=O)c2cc3n(n2)CC(C)(C(=O)NCc2ccc(F)cc2)N(C)C3=O)cc1 (stereo not given) | 3.03% | 0% | -6.49% | -4.29% | 4.03%
Cc1cc(C)n(Cc2cccc(C(=O)N3Cc4ccccc4C(O)C3)c2)n1 (stereo not given) | -3.9% | 0.998% | -0.17% | -0.781% | 7.08%
CCCN1C(=O)c2c(C(=O)NCc3cccc(C)c3)ncn2CC1(C)C(=O)NCCC(C)C (stereo not given) | 0.069% | 0% | 9.08% | 4.65% | 8.23%
CNC(=O)[C@@H]1C[C@H](Oc2ccccc2)CN1S(=O)(=O)Cc1ccccc1F | -3.96% | -7.48% | 0.405% | -6.34% | -1.97%
COc1ccc(C(=O)N2CC(N(C3CCOCC3)S(C)(=O)=O)C2)cn1 | -2.85% | -3.43% | -1.12% | -11.5% | -6.31%
CC#CCn1c(N2CCCC(N)C2)nc2c1c(=O)n(Cc1nc(C)c3ccccc3n1)c(=O)n2C (stereo not given) | -0.37% |  | 0.925% |  | 
NCCCS(=O)(=O)O | -5.58% | -0.207% | 0.082% | -5.6% | 6.89%
COC[C@@H]1OC[C@@]2(C)C3CC[C@@H](O)[C@@H](CC(=O)N4CCCCC4)[C@]3(C)CC[C@H]2O1 (stereo not given in full) | -0.935% | -1.31% | -3.52% | -2.28% | -0.511%
CC1(C(=O)NC2CCCCCC2)Cn2c(ccc2-c2ccco2)C(=O)N1CCCc1ccccc1 (stereo not given) | -2.21% | 0% | 6.17% | 5.66% | 1.88%
CC(C)CCn1c(=O)c2ccc(C(=O)NCC(C)C)cc2n2c(=O)n(CC(=O)c3ccccc3)nc12 | 0.845% | 7.19% | 2.69% | -2.43% | 3.42%
CCC(C)NC(=O)c1ccc2c(=O)n(C(C)C)c3nn(CC(=O)c4ccccc4)c(=O)n3c2c1 (stereo not given) | 6.16% | 1.77% | 7.81% | 4.16% | 6.03%
O=C(O)C1(c2ccc(-c3ccc(Cl)c(Cl)c3)c(F)c2)CC1 | -31.2% | -20.6% | -7.83% | -46.5% | -9.07%
CCOc1ccc(CCNC(=O)CCc2nnc3n(Cc4ccccc4Cl)c(=O)c4ccccc4n23)cc1 | -5.12% | 1.45% | -0.86% | 7.41% | -4.07%
COCCCNC(=O)c1cc2n(n1)CC(C)(C(=O)NCc1ccc(F)cc1)N(C)C2=O (stereo not given) | 1.17% | -1.44% | -4.17% | -2.32% | -3.31%
NC(=O)CN1CCC(c2nc(-c3ccc4nc[nH]c4c3)no2)CC1 | -3.11% | 2.38% | 1.43% | -3.6% | 1.28%
O=C(CC1CCOC2(CCN(S(=O)(=O)c3ccccc3)CC2)C1)N1CCOCC1 (stereo not given) | 0.083% | 0% | 0.248% | 0.084% | 3.03%
CCOC(=O)c1cc2n(n1)CC(C)(C(=O)NC1CCCCC1)N(Cc1ccc(C)cc1)C2=O (stereo not given) | 0.027% | 0.986% | -10.9% | -1.04% | 0.675%
O=C1Nc2ccc(Cl)cc2[C@@](C#CC2CC2)(C(F)(F)F)O1 | -1.93% | -2.14% | -6.95% | -59.6% | -12.4%
